# ChEMBL document CHEMBL4888484, “Replenishing the malaria drug discovery pipeline: Screening and hit evaluation of the MMV Hit Generation Library 1 (HGL1) against asexual blood stage Plasmodium falciparum ,using a nano luciferase reporter read-out” (2022)
# Several values for one entry are separate records, joined by “and”; a condition that tells them apart may be missing. Identical values can stand only once. Among all 150,000 compounds or so, about 540 (0.36%) showed an effect of 50% or more. Some of the results follow.
# System: Plasmodium falciparum
# Test: Primary screen in NF54 nanoGlo assay, in single point, at 2uM, 72h; a lower Z score goes with more inhibition
# Assay type: functional, Erythrocyte
# Settings: timepoint 72 hour
Compound,% Inhibition [%],Z score,% Inhibition (2 µM)
OC[C@H](CNc1ccc(Cl)cn1)Cc1ccccn1,6,-0.62,
Cn1c(-c2ccncc2)nc2cc(C(=O)NCCc3ccco3)cc(NC(=O)C3CCC3)c21,-30,3.63,
COc1ccc(NC(=O)c2c(O)c3cnn(-c4ccc(F)cc4)c3[nH]c2=O)c(OC)c1,-1,0.18,
COc1ccccc1C(N)=NOCCC(C)(C)O,-2,0.28,
CCn1ccnc1[C@H]1OCCC[C@@H]1NC(=O)c1ncnc2[nH]ccc12,-7,1.32,
O=c1c2ccccc2ncn1C[C@H]1CC[C@H](C(=O)Nc2ccc3c(c2)OCCCO3)CC1,-13,2.49,
CC(=O)N(C1CCOCC1)[C@H]1CCCN(C(=O)Cc2cccnc2)C1,36,-4.12,
O=C(CCN1CCCO1)N1CCO[C@@H](Cc2ccccc2Cl)C1,8,-1.05,
CNCC1CCCN1C(=O)C1CCCC(C)C1 (stereo not given),-12,2.19,
NC(=O)CN1CCC(O)(Cc2ccc(OC(F)(F)F)cc2)CC1,5,-0.73,
Cc1noc2ncnc(N[C@H]3CCc4c(Cl)cccc43)c12,1,-0.08,
O=C(c1cc2c(cn1)OCCC2)N1CCC(n2cn[nH]c2=O)CC1,35,-3.99,
O=C(NCc1ccc(F)cc1)N1CCn2nc(C3CC3)cc2C1,-12,1.33,
CCOc1ccc(-c2c[nH]c(-c3cc(C)n(-n4cnnc4)c3C)n2)cc1,30,-3.82,
CC(C)c1csc(CNC(=O)CCc2nccn2C)n1,1,-0.2,
Cc1ccc(C(N)=O)c(N2CCC(n3cc(-c4ccc(F)cc4)nn3)CC2)n1,-8,1.01,
Cc1ccc(CNCc2ccc(C3CC3C)o2)o1 (stereo not given),-1,0.17,
O=C(c1ccc(Br)o1)N1CC(n2nccn2)C1,0,-0.04,
O=C(Nc1nn(Cc2ccccc2)c2cccc(N3CCOCC3)c12)[C@H]1CCOC1,-3,0.66,
Nc1c(C(=O)Nc2ccc3c(c2)OCCO3)nnn1Cc1ccc(Br)cc1F,-2,0.31,
Cc1noc(C)c1S(=O)(=O)NCC(=O)NCC(=O)O,-4,0.62,

Compound,% Inhibition [%],Z score,% Inhibition (2 µM)
C[C@H]1CN(C(=O)c2ccc(F)cc2)C[C@@H]1c1nc(-c2ccccc2)no1,-18,2.09,
CCOc1cccc(CNC(=O)c2nc3cccnc3n(CC)c2=O)c1,-5,0.81,
O=C(O)CCc1cccc(NC(=O)C(=O)N2CC3(CCCCC3)C2)c1,-7,1.32,
CCN(CC(=O)OCc1csc(NC(C)=O)n1)c1ccccc1,11,-1.36,
CN(C(=O)c1ccc(N2CCOCC2)nc1)c1ccccc1,-3,0.3,
CS(=O)(=O)N1CCC(c2cc(-c3ccc(F)cc3)n[nH]2)CC1,-11,1.37,
c1cc(-c2cnn(-c3nnn[nH]3)c2)ccc1-c1cn[nH]c1,-1,0.24,
O=C(CC(C1CC1)C1CC1)NS(=O)(=O)c1cccc2c1N=S=N2,0,0.08,
CCCCn1c(N)c(N(Cc2ccccc2OC)C(=O)c2ccoc2C)c(=O)[nH]c1=O,38,-4.22,
O=C(O)c1ccc(Nc2c3ccccc3nc3ccccc23)cc1,-3,0.3,
CC(C)=CCC[C@H](C)CN1CCCn2nc(CNC(=O)C3CCC3)cc2C1,1,-0.1,
Cn1cc(-c2nsc(NC(=O)COC(F)F)n2)cn1,-7,1.38,
Nc1c(NC(=O)NCc2ccc(F)cc2)c(-c2ccc(Cl)cc2)nn1-c1cc(F)ccc1F,7,-0.83,
O=C(Nc1ccccc1)c1ccc(NC(=O)N2CCC3CCC(C2)[S+]3[O-])cc1 (stereo not given),-6,1,
Cn1c(CCc2ccccc2NC(=O)C2CCCCC2)nc2ccccc21,-14,1.65,
Cc1cc(NC(=O)c2ccc(-n3ccnc3)nn2)sn1,-6,1.08,
Fc1cccc(Nc2nnnc3c2cnn3-c2ccccc2)c1,-7,1.05,
Cc1cc(N2CCC[C@H](c3nnc[nH]3)C2)n2ncnc2n1,-18,2.54,
CCc1csc(CCNS(=O)(=O)c2cn[nH]c2)n1,3,-0.58,
CC[C@@H](C(=O)Nc1c2c(nn1C(C)(C)C)CS(=O)(=O)C2)c1ccccc1,-4,0.71,
CN1CCN(CCn2cnc(-c3ccccc3)c2-c2c[nH]cn2)CC1,-5,0.97,

Compound,% Inhibition [%],Z score,% Inhibition (2 µM)
COc1ccc(C2=NN(c3nc(C(=O)O)cs3)[C@@](O)(C(F)(F)F)C2)cc1,28,-3.18,
Cc1ccc(OCC(=O)NC2CCCCCC2)c(-n2cnnc2)c1,1,-0.14,
CC(C)Cn1c(C(=O)NC2CC2)nnc1N1CCC[C@H](OCC2CC2)C1,-9,1.21,
COc1ccc(NC(=O)COc2ncnc3oc(C)c(C)c23)cc1OC,-5,0.63,
O=C(c1ncc(F)cc1F)N1CCC2(CCC(=O)N(C3CC3)C2)CC1,-11,2.14,
CCC1(C)CC2(CCCN(CCC(O)(c3ccccc3)c3ccccc3)C2)CCO1 (stereo not given),,,-5% and -1%
CCCn1nnnc1CN(C)[C@@H](C)c1cccc(O)c1,-2,0.4,
C[C@H]1CN(C(=O)Nc2ccc3oc(C4CC4)nc3c2)CCO1,-13,1.35,
CN(C)CCCN1CCN(C(=O)c2cccc(-c3ccc(O)cc3)c2)CC1,-11,1.23,
COc1ccc(Br)c(CN[C@H]2CCCOC2)c1,-8,1.13,
CCOCCC1(C(=O)Nc2ncc(-c3cnccn3)s2)CCCC1,9,-1.03,
Cc1cccc(-n2nc(C)nc2CN2CCCN(C)CC2)n1,-12,1.53,
CCc1nc(CN2CCn3nc(C#N)cc3C2)no1,-2,0.37,
O=C(C1CCCC1)N1CCCN(c2nc(Cc3ccccc3)nc3onc(-c4ccccc4)c23)CC1,-2,0.27,
Cc1ccc(-n2ncc3c(C)n[nH]c(=O)c32)c(C)c1,-15,3,
COC[C@H]1[C@@H](NC(=O)CCc2n[nH]c(C)c2C)[C@H]2CCO[C@H]21,-8,0.83,
CN(C)S(=O)(=O)N1C[C@H]2CC[C@@H](C1)N(CCCOc1ccccc1)C2,-1,0.12,
CS(=O)(=O)c1ccc(NC(=O)c2coc(NC(=O)c3cccs3)n2)cc1,-6,0.99,
O=S(=O)(Nc1cccc2[nH]ncc12)c1cccc(F)c1F,-2,0.31,
COC(=O)c1cc(C)nc2c1c(=O)n(CC(=O)NC1CCCC1)c(=O)n2-c1cccc(OC)c1,7,-0.86,
CC(C)c1ocnc1C(=O)N1CC(C)C(C)C1 (stereo not given),-14,2.09,

Compound,% Inhibition [%],Z score,% Inhibition (2 µM)
O=C(NC[C@H]1O[C@@H](CO)[C@@H](O)[C@H]1N1CCOCC1)Nc1ccc(OC(F)(F)F)cc1,-3,0.63,
O=C(Nc1ccc2c(c1)OCO2)Nc1nnc(Cc2ccccc2)o1,-10,1.14,
CC(=O)N1CCC2(CC1)C[C@@H](c1nnc(C)o1)N(CCc1ccccc1)C2,-7,0.92,
O=C(NC1CCCCCC1)C1CCN(S(=O)(=O)c2cc(Cl)ccc2Cl)CC1,-16,1.98,
CC(=O)Nc1ccc2c(c1)cc(C(=O)NCc1ccccc1)n2Cc1cccc(F)c1,2,-0.28,
Cc1cccc(-c2noc(N3CCOCC3)c2CN(C(=O)c2ccc(Cl)cc2)C(C)C)c1,-8,1.28,
O=C(O)C1CCN(C(=O)[C@@H]2CCCN2C(=O)[C@H](Cc2ccccc2)n2c(O)nc3ccccc3c2=O)CC1,-2,0.21,
Cc1ncc(NC(=O)N2CC(C)C2c2ccccc2)c(C2CC2)n1 (stereo not given),-8,1.09,
COCCc1nc(-c2occc2C)n(CCO)n1,12,-2.19,
Cc1nc(CCNS(C)(=O)=O)cs1,9,-1.1,
CC(=O)N1CCN(C(=O)C2CC2c2cccc3ccccc23)CC1 (stereo not given),-3,0.24,
CN(C1C2CCOC2C1(C)C)S(=O)(=O)c1cccs1 (stereo not given),-13,1.79,
CCN(CC)C(=O)Cn1cc(C(=O)NCc2csc(C)n2)nn1,-11,1.65,
CCCn1ccnc1[C@@H]1c2nc[nH]c2CCN1Cc1ccccn1,-5,0.79,
Nc1nc(N2CCN(C(=O)[C@H]3C[C@@H]3c3ccccc3)CC2)cc(=O)[nH]1,-8,1.36,
OCCn1nc(-c2ccco2)nc1C1(CO)CC1,-11,1.6,
Cc1cc(-c2nc(COc3ccc(F)cc3)nn2C2CCN(C)CC2)no1,-11,1.31,
CCCCNC(=O)[C@H]1CCCN(C(=O)c2nnc(C(=O)Nc3cccc(Cl)c3)s2)C1,-27,2.41,
Cc1cc(NC(=O)C(=O)N2CCC[C@H](c3[nH]ncc3-c3ccccc3)C2)no1,-15,1.43,
C[C@@H]1CN(c2nc(C(F)F)nc3ccc(F)cc23)C[C@H](C)N1,-4,0.64,
